# In paper PMC6919601, “Identification of Plasmodium dipeptidyl aminopeptidase allosteric inhibitors by high throughput screening” (PLoS ONE, 2019):
# The whole screen tested about 110,000 compounds, of which about 230 (0.21%) showed an effect of 50% or more. Some of the results follow.
# Biological target: DPAP1 (Plasmodium falciparum, UniProt Q8IIJ9)
# Experiment: primary screen, percent inhibition; read by cleavage of a fluorogenic dipeptide substrate; higher = more effect of the substance
# Parameters: species or system P. falciparum D10 trophozoite lysates; single well
# 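Further: 30 min substrate incubation versus DMSO and 10 µM JCP410 controls.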
# Sequence of DPAP1 (Q8IIJ9 whole entry, looked up): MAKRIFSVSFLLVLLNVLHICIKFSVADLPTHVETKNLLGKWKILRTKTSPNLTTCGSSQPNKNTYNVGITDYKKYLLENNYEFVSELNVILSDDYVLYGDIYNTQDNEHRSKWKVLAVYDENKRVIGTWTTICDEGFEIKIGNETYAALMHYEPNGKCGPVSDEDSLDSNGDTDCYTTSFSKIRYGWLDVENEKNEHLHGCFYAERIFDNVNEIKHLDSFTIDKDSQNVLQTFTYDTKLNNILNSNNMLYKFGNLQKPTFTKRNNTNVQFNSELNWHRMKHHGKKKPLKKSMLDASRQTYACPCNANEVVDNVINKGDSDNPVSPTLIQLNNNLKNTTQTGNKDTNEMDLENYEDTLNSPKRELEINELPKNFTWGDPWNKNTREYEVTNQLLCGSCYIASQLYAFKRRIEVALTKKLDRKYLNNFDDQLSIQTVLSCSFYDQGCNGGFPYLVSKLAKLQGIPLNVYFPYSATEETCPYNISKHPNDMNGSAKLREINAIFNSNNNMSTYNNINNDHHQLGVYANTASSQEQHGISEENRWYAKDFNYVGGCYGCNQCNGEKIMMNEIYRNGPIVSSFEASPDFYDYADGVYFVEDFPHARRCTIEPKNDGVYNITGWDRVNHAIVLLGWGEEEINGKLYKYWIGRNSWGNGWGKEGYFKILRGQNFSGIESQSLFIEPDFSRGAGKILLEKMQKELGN
row,SMILES,% Inhibition @ 10 uM [%]
1,C=CCNC(=O)COCc1cc(-c2ccc3c(c2)OCO3)on1,-3.81
2,COc1ccc(NC(=O)/C(=C/c2ccccc2)NC(=O)c2ccc(Br)o2)cc1,-4.49
3,Cc1ccc(-c2cc(-c3ccccc3)nc(N3CCNCC3)n2)cc1,7.4
4,CN(C)CCCn1c(=O)n(C)c(=O)c2[nH]cnc21,-1.22
5,O=C(Nc1cccnc1)c1ccc2ccccc2c1O,7.51
6,O=S(=O)(c1ccc(-c2csc(Nc3cccc4ccccc34)n2)cc1)N1CCCC1,5.29
7,Cc1csc(NC(=O)C(=O)c2cc(C)n(-c3ccc(C)c(C)c3)c2C)n1,2.32
8,O=C(NC1CCCCCC1)C1CCCN(S(=O)(=O)c2ccc3nc(O)ccc3c2)C1 (stereo not drawn),-7.74
9,COc1nc2ccccc2cc1-c1noc(-c2ccc(Cl)cc2)n1,-2.62
10,CC(C)CN1CC23C=CC(O2)C(C(=O)O)C3C1=O (stereo not drawn),-2.98
11,CCC1(CC)C(=O)NC(=O)N=C1Nc1cccc(Cl)c1,2.24
12,Nc1nnc(CC2=CCCCC2)s1,4.26
13,CCN1CCC(N(Cc2ccco2)C(=O)NC2CCCC2)CC1,1.46
14,CCNS(=O)(=O)c1ccc(CCC(=O)N2CCN(C(=O)OCC)CC2)cc1,-3.75
15,Cc1ccc(S(=O)(=O)NCC(C)NC(=O)CN2CCOCC2)cc1 (stereo not drawn),-3.13
16,Cc1nc2c(c(C)c1CCC(=O)N1CC=C(c3ccccc3)CC1)c(=O)n(C)c(=O)n2C,5.32
17,Cn1c(=O)c2c(-c3ccccc3Br)n(CC(=O)c3ccccc3)cc2n(C)c1=O,0.758
18,COc1cccc(N/C=C/C(=O)c2ccc(OC)c(OC)c2)c1,0.851
19,CCC1CCCCN1CCCNC(=O)c1ccc(CSc2nc3ccncc3[nH]2)cc1 (stereo not drawn),1.8
20,COC(=O)/C(=C1/Oc2c(C)cc(C)cc2S1)C(F)(F)F,-7.23
21,O=C1c2cccnc2C(=O)N1Cc1ccccc1,-2.88
22,O=C(NC1CCCc2ccccc21)c1ccc(CNc2c(N3CCOCC3)c(=O)c2=O)cc1 (stereo not drawn),1.15
23,Cc1ccc2nc3c(cc(C#N)c(=O)n3Cc3ccccc3Cl)c(=O)n2c1,-4.07
24,CCCC(=O)Nc1ccc2c(c1)ncn2C1CCCCC1,3.8
25,O=C(NCc1ccco1)c1ccc(S(=O)(=O)N2CCCCC2)cc1,0.361
26,O=C1C2C3C=CC(C2C(=O)N1c1ccc(F)cc1)C1C(=O)N(c2ccc(F)cc2)C(=O)C31 (stereo not drawn),6.65

row,SMILES,% Inhibition @ 10 uM [%]
1,COc1cc(C)nc(-c2ccccc2O)n1,-3.77
2,Cc1nc2nc(NC(=O)C3CCCCC3)nn2c(O)c1Cc1ccccc1,-1.31
3,COc1ccc(C2OC(=O)C(O)=C2C(=O)c2ccc(Cl)cc2)cc1 (stereo not drawn),-1.47
4,CCC(Cc1ccccc1)NC(=O)CCn1cccc1 (stereo not drawn),-2.45
5,CN1CCc2nc(S)c(C#N)c(/C=C/c3ccccc3)c2C1,3.39
6,CSC1=C(C#N)C(c2ccccc2Cl)C2=C(O)CCCC2=N1 (stereo not drawn),2.3
7,O=C(NCCCN1CCOCC1)c1csc2c1CCCC2,5.09
8,O=C(NCc1ccc(F)cc1)C1CCC(CNS(=O)(=O)c2cccs2)CC1 (stereo not drawn),-6.57
9,CCCCN1C(=O)c2ccc(C(=O)Nc3cc(OC)c(OC)cc3C(=O)O)cc2C1=O,-0.478
10,CN(C)C(C)(C)c1nnnn1C(/C=C\c1ccc(Cl)cc1Cl)C(C)(C)C (stereo not drawn),-4.16
11,O=C(NC1CCCCC1)c1cnn2c1NC(c1ccccc1)CC2C(F)(F)F (stereo not drawn),8.36
12,OCC1CCCCN1Cc1cc(Br)cs1 (stereo not drawn),0.0035
13,COc1cc(CCC(=O)Nc2nnc(C)s2)cc(OC)c1OC,0.238
14,Cc1ccnc(NC(=O)c2ccc(Cl)c(Cl)c2)c1,0.408
15,COC(=O)c1sc2nc3c(cc2c1N)CN(C(C)C)CC3,-1.08
16,CC12CC3CC(N)(C1)CC(CO)(C3)C2 (stereo not drawn),-1.78
17,CC1C(C#N)=C(SCC(=O)c2ccc(Cl)cc2)N=C2CC(C)(C)CC(O)=C21 (stereo not drawn),45.5
18,COc1cc(CNC2CCCCCC2)cc2c1OCO2,3.44
19,O=C(Cn1ccc2ccccc2c1=O)NCCc1ccc(Cl)cc1,1.91
20,CCOC(=O)C1=C(CNCc2cccs2)NC(=O)NC1c1ccc(C)cc1 (stereo not drawn),-1.03
21,O=C(c1ccccc1)N1CCN(CC(O)COC2CCCCC2)CC1 (stereo not drawn),1.52
22,CC(C)Cn1cc(NC(=O)NC(C)c2ccccc2)c2ccccc2c1=O (stereo not drawn),-2.15
23,Nc1c(C(=O)NCc2ccccc2)sc2nc3c(c(-c4ccco4)c12)CCC3,-0.458
24,O=C(c1ccco1)n1nc(-c2ccco2)nc1NCc1cccs1,-1.47
25,Cc1ccc(CSc2nc3ccncc3n2Cc2ccc(C(=O)NCC3CCCO3)cc2)cc1 (stereo not drawn),2.99
